Experimental data published in the RNAGym collection of RNA variant scans (doi:10.7554/elife.90254).
The source gives no read counts; variants with many changes may rest on few reads.

B1: LINE1-full (parent)
chain: UACGUAGGUGGUUUUCCCCUGAUAGUGCUAAGGGGGCCUGGAAGUUUGGACUGGGCAGAGCUCAACACAGCGUGGCAAAGUGGCUGUGGCUAGACUGCCUCUCUGGAUUCCUCGUCACUCAGCAGGGCAUCUCUGAGAGAAAUGCC

Variants of: B1
Test: self-cleavage, relative activity (ratio to wild type); higher = more cleavage; in vitro, sequencing; the parent is a self-cleaving ribozyme

| Variant | self-cleavage |
| --- | --- |
| UACGUAGGUGGUUUUCCCCUGAUAGUGCUAAGGGGGCCUGGAAGUUUGGACUGGGCAGGGCUCAACACAGCGUGGCAAAGUGGCUGUGGCUAGACUGCCUCUCUGGAUUCCUCGUCACUCAGCAGGGCAUCCCUGAGAGAUAUGCC [A59G U132C A141U] | 0.35 |
| UACGUAGGUGGUUUUCCCCUGAUAGUGCUAAGGGGGCCUGGAAGUUUGGACUGGGCAGUGCUCGACACAGCGUGGCAAGGUGGCUGUGGCUAGACUGCCUCUCUGGAUUCCUCGUCACUCAGCAGGGCAUCUCUGAGGGAAAUGCC [A59U A64G A79G A138G] | 0.11 |
| UACGUAGGUGGUUUUCCCCUGAUAGUGCUAAGGGGGCCUGGAAGUUUGGACUGGGCAGUGCUCUACACAGCGUGGCAAAGUGGCUGUGGCUAGACUGCCUCUCUGGAUUCCUCGUCACUCAGCAGGGCAUCCCUGAGAGAAAUGCC [A59U A64U U132C] | 0.68 |
| UACGUAGGUGGUUUUCCCCUGAUAGUGCUAAGGGGGCCUGGAAGUUUGGACUGGGCAGUGCUCAGCACAGCGUGGCAAAGUGGCUGUGGCUAGACUGCCUCUCUGGAUUCCUUGUCACUCAGCAGGGCAUCUCUGAGAGAAAUGCC [A59U A65G C113U] | 0 |
| UACGUAGGUGGUUUUCCCCUGAUAGUGCUAAGGGGGCCUGGAAGUUUGGACUGGGCAGUGCUCAACGCAGCGUGGCAAAGUGGCUGUGGCUAGACUGCCUUUCUGGAUUCCUCGUCACUCACCAGGGCAUCACUGAGAGAAAUGCC [A59U A67G C101U G122C U132A] | 0.4 |
| UACGUAGGUGGUUUUCCCCUGAUAGUGCUAAGGGGGCCUGGAAGUUUGGACUGGGCAGUGCUCAACACGGCGUGGCAAAGUGGCUGUGGCUAGACUGCCUCUCUGGAUUCCUCGUCACUCAGCAGGGCGUCUCCGAGAGAAAUGCC [A59U A69G A129G U134C] | 0 |
| UACGUAGGUGGUUUUCCCCUGAUAGUGCUAAGGGGGCCUGGAAGUUUGGACUGGGCAGUGCUCAACACUGCGUGGCGAAGUGGCUGUGGCUAGACCGCCUCUCUGGAUUCCUCGUCACCCAGCAGGGCAUCUCUGAGAGAAAUGCC [A59U A69U A77G U96C U119C] | 0.5 |
| UACGUAGGUGGUUUUCCCCUGAUAGUGCUAAGGGGGCCUGGAAGUUUGGACUGGGCAGUGCUCAACACAGCGUGGCAAGGUGGCUGUGGCUAGACUGUCUCUCUGGAUUCCUCGUCACUCAGCAGGGCAUCCCUGAGAGAAAUGCC [A59U A79G C98U U132C] | 0.7 |
| UACGUAGGUGGUUUUCCCCUGAUAGUGCUAAGGGGGCCUGGAAGUUUGGACUGGGCAGUGCUCAACACAGCGUGGCAAGGUGGCUGUGGCUAGACUGCCUCUCCGGUUUCCUCGUCACUCAGCAGGGCAUCUCUGAGAGAAAUGCC [A59U A79G U104C A107U] | 0.74 |
| UACGUAGGUGGUUUUCCCCUGAUAGUGCUAAGGGGGCCUGGAAGUUUGGACUGGGCAGUGCUCAACACAGCGUGGCAAUGUGGCUGCGGCUAGACUGCCUCUCUGGAUUCCUCGUCACUCAGCAGGGCAUCUCUGAGGGAAAUGCC [A59U A79U U87C A138G] | 0.09 |
| UACGUAGGUGGUUUUCCCCUGAUAGUGCUAAGGGGGCCUGGAAGUUUGGACUGGGCAGUGCUCAACACAGCGUGGCAAAGUGGCUGUGGCUUGACUGCCUCUCUGGAUUCCUCGUCACUCAGCGGGGCAUCUCUGAGAGAAAUGCC [A59U A92U A124G] | 0 |
| UACGUAGGUGGUUUUCCCCUGAUAGUGCUAAGGGGGCCUGGAAGUUUGGACUGGGCAGUGCUCAACACAGCGUGGCAAAGUGGCUGUGGCUUGACUGCCUCUCUGGAUUCCUCGUCACUCAGCAGGGCAUCUCUGAGAGCAAUGCC [A59U A92U A140C] | 0.66 |
| UACGUAGGUGGUUUUCCCCUGAUAGUGCUAAGGGGGCCUGGAAGUUUGGACUGGGCAGUGCUCAAAACAGCGUGGCGAAGUGGCUGUGGCUAGACUGCCUCUCUGGAUUCCUCGUCACUCAGCAGGGCAUCUCUGAGAGAAAUGCC [A59U C66A A77G] | 0.19 |
| UACGUAGGUGGUUUUCCCCUGAUAGUGCUAAGGGGGCCUGGAAGUUUGGACUGGGCAGUGCACAACACAGCGUGGCAAAGUGGCUGUGGCUAGACUGCCUCUCUGGAUUCCUCGUCACUCAGCAGGGAAUCUCUGAGGGAAAUGCC [A59U U62A C128A A138G] | 0.02 |
| UACGUAGGUGGUUUUCCCCUGAUAGUGCUAAGGGGGCCUGGAAGUUUGGACUGGGCAGUGCUCAACACAGCGUGGCAAAGUGGCUGUGGCUAGACAGCCUCUCUGGAUUCCUCGUCACUCAGCUGAGCAUCUCUGAGAGAAAUGCC [A59U U96A A124U G126A] | 0.08 |
| UACGUAGGUGGUUUUCCCCUGAUAGUGCUAAGGGGGCCUGGAAGUUUGGACUGGGCAGUGCUCAACACAGCGUGGCAAAGUGGCUGUGGCUAGACCGCCCCUCUGGAUUCCUCGUCACUCAGCAGGGCAUCUCUGAGAGAAAUGCC [A59U U96C U100C] | 0.52 |
| UACGUAGGUGGUUUUCCCCUGAUAGUGCUAAGGGGGCCUGGAAGUUUGGACUGGGCAGUGCUCAACACAGCGUGGCAAAGUGGCUGUGGCUAGACUGCCUCUCCGGAUUCCUCGUCACUCAGCAGGGCGUCUCUGAGAGAAAUGCC [A59U U104C A129G] | 2.91 |
| UACGUAGGUGGUUUUCCCCUGAUAGUGCUAAGGGGGCCUGGAAGUUUGGACUGGGCAGUGCUCAACACAGCGUGGCAAAGUGGCUGUGGCUAGACUGCCUCUCUGGAUCCCUCGCCACUCAGCAGGGCAUCUCUGAGAGAAAUGCC [A59U U109C U115C] | 0.84 |
| UACGUAGGUGGUUUUCCCCUGAUAGUGCUAAGGGGGCCUGGAAGUUUGGACUGGGCAGUGCUCAACACAGCGUGGCAAAGUGGCUGUGGCUAGACUGCCUCUCUGGAUUCCUCGCCACUCAGCAGGGCAUCUCUGGGAGAAAUGCC [A59U U115C A136G] | 1.48 |
| UACGUAGGUGGUUUUCCCCUGAUAGUGCUAAGGGGGCCUGGAAGUUUGGACUGGGCAGAACUCGACACAGCGUGGCAAAGUGGCUGUGGCUAGACUGCCUCUCUGGAUUCCUCGUCACUCAGCAGGGCAUCUCUGAGGGAAAUGCC [G60A A64G A138G] | 0.06 |
